Some of the results follow. Sequences were assembled here from the parent chain. Values near 0.05 are background.
B1: TEV protease; numbered along this chain (parent)
chain: MGESLFKGPRDYNPISSSICHLTNESDGHTTSLYGIGFGPFIITNKHLFRRNNGTLVVQSLHGVFKVKDTTTLQQHLVDGRDMIIIRMPKDFPPFPQKLKFREPQREERICLVTTNFQTKSMSSMVSDTSCTFPSGDGIFWKHWIQTKDGQCGSPLVSTRDGFIVGIHSASNFTNTNNYFTSVPKNFMELLTNQEAQQWVSGWRLNADSVLWGGHKVFMVKPEEPFQPVKEATQL

Variants of: B1
Assay: raw area under fraction-flipped curve 0-4 h after induction (AUC4h, not background-subtracted), DNA-recorder readout of cleavage of the substrate (dimensionless); higher = more cleavage of the substrate by the protease variant
Settings: temperature: 34 °C; time window: 0-4 h after rhamnose induction
Protocol: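 In vivo DNA recorder in E. coli TOP10(DE3) ΔrhaA at 34 °C. Each TEVp single-site mutant (parent TEVp 0) is paired with a single-site variant of the 7-mer TEVs (canonical ENLYFQ|S). The substrate sits between flexible linkers in a Bxb1-sfGFP-TEVs-SsrA fusion, so cleavage stabilises Bxb1 and speeds flipping of a recombination array, read by NGS. The value is the raw area under the fraction-flipped curve over 0-4 h after rhamnose induction (AUC4h), with ≥20 reads per time point. It is not background-subtracted; inactive controls average about 0.047.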
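Note: Bxb1 expression induced with 0.2% (w/v) L-rhamnose at OD600 near 0.5, cultures sampled hourly, flipped fraction per protease–substrate barcode pair counted by paired-end Illumina sequencing.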

| Variant | area with substrate ENLYAQS | area with substrate ENLYEQS | area with substrate ENLYHQS | area with substrate ENLYIQS | area with substrate ENLYKQS | area with substrate ENLYLQS | area with substrate ENLYMQS | area with substrate ENLYNQS | area with substrate ENLYPQS | area with substrate ENLYRQS | area with substrate ENLYTQS | area with substrate ENLYWQS | area with substrate ENLYDQS | area with substrate ENLYQQS | area with substrate ENLYYQS | area with substrate ENLYCQS | area with substrate ENLYGQS | area with substrate ENLYSQS | area with substrate ENLYVQS |
| --- | --- | --- | --- | --- | --- | --- | --- | --- | --- | --- | --- | --- | --- | --- | --- | --- | --- | --- | --- |
| MGESLFKGPRDYNPISSSICHLTNESDGHTTSLYGIGFGPFIITNKHLFRRNNGTLVVQSLHGVFKVKDTDTLQQHLVDGRDMIIIRMPKDFPPFPQKLKFREPQREERICLVTTNFQTKSMSSMVSDTSCTFPSGDGIFWKHWIQTKDGQCGSPLVSTRDGFIVGIHSASNFTNTNNYFTSVPKNFMELLTNQEAQQWVSGWRLNADSVLWGGHKVFMVKPEEPFQPVKEATQL [T71D] | 0.0544 | 0.0643 | 0.0774 | 0.0898 | 0.101 | 0.094 | 0.0624 | 0.0653 | 0.065 | 0.0512 | 0.0777 | 0.0619 | – | – | – | – | – | – | – |
| MGESLFKGPRDYNPISSSICHLTNESDGHTTSLYGIGFGPFIITNKHLFRRNNGTLVVQSLHGVFKVKDTITLQQHLVDGRDMIIIRMPKDFPPFPQKLKFREPQREERICLVTTNFQTKSMSSMVSDTSCTFPSGDGIFWKHWIQTKDGQCGSPLVSTRDGFIVGIHSASNFTNTNNYFTSVPKNFMELLTNQEAQQWVSGWRLNADSVLWGGHKVFMVKPEEPFQPVKEATQL [T71I] | 0.0598 | 0.065 | 0.003 | – | – | – | 0.0778 | 0.0577 | 0.0839 | – | – | 0.0809 | 0.0651 | 0.0615 | 0.0619 | – | – | – | – |
| MGESLFKGPRDYNPISSSICHLTNESDGHTTSLYGIGFGPFIITNKHLFRRNNGTLVVQSLHGVFKVKDTTTLQHHLVDGRDMIIIRMPKDFPPFPQKLKFREPQREERICLVTTNFQTKSMSSMVSDTSCTFPSGDGIFWKHWIQTKDGQCGSPLVSTRDGFIVGIHSASNFTNTNNYFTSVPKNFMELLTNQEAQQWVSGWRLNADSVLWGGHKVFMVKPEEPFQPVKEATQL [Q75H] | 0.0685 | – | 0.0635 | 0.0892 | 0.0692 | – | 0.0478 | 0.0507 | – | 0.0594 | 0.0761 | 0.0606 | 0.0519 | 0.0598 | 0.0641 | 0.0684 | 0.0555 | 0.0638 | 0.0741 |
| MGESLFKGPRDYNPISSSICHLTNESDGHTTSLYGIGFGPFIITNKHLFRRNNGTLVVQSLHGVFKVKDTTTLQTHLVDGRDMIIIRMPKDFPPFPQKLKFREPQREERICLVTTNFQTKSMSSMVSDTSCTFPSGDGIFWKHWIQTKDGQCGSPLVSTRDGFIVGIHSASNFTNTNNYFTSVPKNFMELLTNQEAQQWVSGWRLNADSVLWGGHKVFMVKPEEPFQPVKEATQL [Q75T] | 0.0603 | – | 0.0622 | – | 0.044 | – | 0.0807 | 0.0649 | 0.0667 | 0.0668 | 0.0693 | 0.072 | 0.0702 | – | 0.0597 | – | 0.0672 | 0.0593 | 0.0869 |
| MGESLFKGPRDYNPISSSICHLTNESDGHTTSLYGIGFGPFIITNKHLFRRNNGTLVVQSLHGVFKVKDTTTLQQHMVDGRDMIIIRMPKDFPPFPQKLKFREPQREERICLVTTNFQTKSMSSMVSDTSCTFPSGDGIFWKHWIQTKDGQCGSPLVSTRDGFIVGIHSASNFTNTNNYFTSVPKNFMELLTNQEAQQWVSGWRLNADSVLWGGHKVFMVKPEEPFQPVKEATQL [L77M] | 0.0543 | 0.0787 | 0.0591 | 0.0239 | 0.0324 | – | 0.0671 | 0.0577 | 0.0656 | 0.0708 | – | 0.0494 | 0.054 | 0.0581 | – | – | 0.0707 | 0.0856 | – |
| MGESLFKGPRDYNPISSSICHLTNESDGHTTSLYGIGFGPFIITNKHLFRRNNGTLVVQSLHGVFKVKDTTTLQQHLKDGRDMIIIRMPKDFPPFPQKLKFREPQREERICLVTTNFQTKSMSSMVSDTSCTFPSGDGIFWKHWIQTKDGQCGSPLVSTRDGFIVGIHSASNFTNTNNYFTSVPKNFMELLTNQEAQQWVSGWRLNADSVLWGGHKVFMVKPEEPFQPVKEATQL [V78K] | 0.101 | 0.0581 | 0.0556 | – | 0.0506 | – | – | 0.06 | 0.0298 | 0.0438 | – | – | – | 0.05 | – | 0.0474 | 0.0499 | 0.0563 | 0.0614 |
| MGESLFKGPRDYNPISSSICHLTNESDGHTTSLYGIGFGPFIITNKHLFRRNNGTLVVQSLHGVFKVKDTTTLQQHLMDGRDMIIIRMPKDFPPFPQKLKFREPQREERICLVTTNFQTKSMSSMVSDTSCTFPSGDGIFWKHWIQTKDGQCGSPLVSTRDGFIVGIHSASNFTNTNNYFTSVPKNFMELLTNQEAQQWVSGWRLNADSVLWGGHKVFMVKPEEPFQPVKEATQL [V78M] | 0.079 | 0.088 | 0.07 | 0.102 | 0.0524 | – | 0.0962 | 0.0627 | 0.0801 | 0.0766 | 0.0591 | 0.073 | 0.0567 | 0.0593 | 0.0429 | – | 0.074 | 0.0666 | 0.136 |
| MGESLFKGPRDYNPISSSICHLTNESDGHTTSLYGIGFGPFIITNKHLFRRNNGTLVVQSLHGVFKVKDTTTLQQHLTDGRDMIIIRMPKDFPPFPQKLKFREPQREERICLVTTNFQTKSMSSMVSDTSCTFPSGDGIFWKHWIQTKDGQCGSPLVSTRDGFIVGIHSASNFTNTNNYFTSVPKNFMELLTNQEAQQWVSGWRLNADSVLWGGHKVFMVKPEEPFQPVKEATQL [V78T] | 0.0634 | 0.0482 | 0.0541 | 0.102 | 0.0589 | 0.0552 | 0.0617 | 0.0559 | – | 0.0415 | 0.0807 | 0.0719 | 0.0561 | 0.0595 | 0.0293 | – | – | 0.0863 | – |
| MGESLFKGPRDYNPISSSICHLTNESDGHTTSLYGIGFGPFIITNKHLFRRNNGTLVVQSLHGVFKVKDTTTLQQHLVDFRDMIIIRMPKDFPPFPQKLKFREPQREERICLVTTNFQTKSMSSMVSDTSCTFPSGDGIFWKHWIQTKDGQCGSPLVSTRDGFIVGIHSASNFTNTNNYFTSVPKNFMELLTNQEAQQWVSGWRLNADSVLWGGHKVFMVKPEEPFQPVKEATQL [G80F] | 0.058 | 0.0629 | 0.0702 | 0.126 | 0.0637 | – | 0.0756 | 0.0651 | 0.0701 | – | – | 0.0696 | – | 0.0674 | 0.0421 | – | – | – | – |

— the supplement of paper PMC12217912
